About 220 (0.56%) of roughly 39,000 compounds showed activity. The list shows a part of the results.
Test system: Escherichia coli K-12 BW25113
Assay: relative growth (OD600 normalised to plate interquartile mean) (fraction); higher = less growth inhibition, active = 0.2 or less
Settings: 50 µM; LB; incubation time: overnight (16-24 h)
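Note: static incubation at 37 °C against the wild-type strain, values averaged over two biological replicates.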

| Compound | relative growth |
| --- | --- |
| C[C@@H](N)CCCP(=O)(O)O | inactive: 1.01 |
| C[C@@H]1CN([C@H](C)CO)C(=O)c2cccc(NC(=O)Nc3ccc(F)cc3)c2O[C@H]1CN(C)Cc1ccc(Cl)c(Cl)c1 | inactive: 0.951 |
| C[C@@H]1CCCCO[C@@H](CN(C)Cc2ccc(C(=O)O)cc2)[C@H](C)CN([C@@H](C)CO)C(=O)c2cc(NS(=O)(=O)c3ccc(F)cc3)ccc2O1 | inactive: 0.995 |
| C[C@H](CO)N1C[C@H](C)[C@@H](CN(C)S(=O)(=O)c2ccc3c(c2)OCCCO3)OCc2cn(nn2)CCCC1=O | inactive: 0.999 |
| Cl.[NaH] | inactive: 1.01 |
| COc1ccccc1C(=O)Nc1ccc2c(c1)C(=O)N(C)[C@@H]1CC[C@H](CC(=O)NCc3ccc(Cl)c(Cl)c3)O[C@@H]1CO2 | inactive: 1.02 |
| Cn1[nH]c(=O)cc1C(F)(F)F | inactive: 1 |
| N[C@@H](Cc1ccc(O)cc1)C(=O)O | inactive: 0.973 |
| Cc1noc(C)c1S(=O)(=O)Nc1ccc2c(c1)CC(=O)N([C@H](C)CO)C[C@H](C)[C@H](CN(C)C(=O)NC1CCCCC1)O2 | inactive: 0.995 |
| CC(C)(C)C(=O)Nc1ccccc1F | inactive: 1 |
| COCCNC(=O)C[C@@H]1CC[C@H](NS(=O)(=O)c2ccc(C)cc2)[C@H](CO)O1 | inactive: 1.04 |
| C[C@@H]1CN([C@H](C)CO)C(=O)c2cc(NC(=O)Nc3ccc(F)cc3)ccc2O[C@@H](C)CCCCO[C@H]1CN(C)C(=O)c1ccccc1 | inactive: 0.989 |
| O=C(C[C@H]1C[C@H]2c3cc(NS(=O)(=O)c4ccc(F)cc4)ccc3O[C@H]2[C@@H](CO)O1)NCCc1ccccc1 | inactive: 1.03 |
| COc1cc(C(=O)NCCCN2CCCN(CCCNC(=O)c3cc(OC)c(OC)c(OC)c3)CC2)cc(OC)c1OC | inactive: 1.01 |
| COc1ccc(S(=O)(=O)Nc2ccc3c(c2)C(=O)N([C@@H](C)CO)C[C@@H](C)[C@H](CN(C)Cc2ccc(Cl)c(Cl)c2)OCCCC[C@@H](C)O3)cc1 | inactive: 1 |
| CCCN(C)C[C@@H]1OCCCC[C@@H](C)Oc2ccc(NS(C)(=O)=O)cc2C(=O)N([C@@H](C)CO)C[C@@H]1C | inactive: 0.972 |
| COc1ccc2c3c(n(c2c1)C)[C@@H](CO)N(C[C@]13CN(CC2CCOCC2)C1)C(=O)Cc1ccccn1 | inactive: 0.997 |
| CN(C)CC(=O)N1[C@@H]2Cn3c(ccc(-c4cccnc4)c3=O)[C@H]1[C@@H](C(=O)NC1CCC1)[C@@H]2CO | inactive: 0.985 |
| C[C@@H]1CN([C@H](C)CO)C(=O)c2cccc(NS(=O)(=O)c3cn(C)cn3)c2O[C@H]1CN(C)Cc1ccc(C(=O)Nc2ccccc2N)cc1 | inactive: 0.994 |
| C[C@@H]1CN([C@H](C)CO)C(=O)c2cccc(NS(=O)(=O)c3cccs3)c2O[C@H]1CN(C)C(=O)Nc1cccc2ccccc12 | inactive: 0.987 |

| Compound | relative growth |
| --- | --- |
| CC/1=C(CCC(=O)O)/C/2=C/c3[nH]c(c(c3CCC(=O)O)C)/C=C/3\N=C(/C=C/4\N=C(\C=C1/N2)C(=C4C)C=C)C(=C3C)C=C | inactive: 0.819 |
| COc1ccc(S(=O)(=O)N(C)C[C@@H]2OCCCC[C@H](C)Oc3ccc(NS(=O)(=O)c4cn(C)cn4)cc3C(=O)N([C@@H](C)CO)C[C@H]2C)cc1 | inactive: 0.966 |
| C[C@@H]1CN([C@H](C)CO)C(=O)Cc2cc(NS(=O)(=O)c3cn(C)cn3)ccc2O[C@@H]1CN(C)C(=O)Nc1ccccc1 | inactive: 0.99 |
| Cc1ccc(S(=O)(=O)N(C)C[C@@H]2Oc3c(NS(=O)(=O)c4cccs4)cccc3C(=O)N([C@H](C)CO)C[C@@H]2C)cc1 | inactive: 0.989 |
| C[C@H]1CN([C@@H](C)CO)C(=O)c2cc(NS(=O)(=O)c3ccc(F)cc3)ccc2O[C@H]1CN(C)Cc1ccncc1 | inactive: 0.992 |
| C[C@@H]1CCCCO[C@H](CN(C)S(=O)(=O)c2ccc(F)cc2)[C@@H](C)CN([C@@H](C)CO)C(=O)c2cc(NC(=O)c3ccccc3)ccc2O1 | inactive: 1.04 |
| C[C@@H]1CCCCO[C@@H](CN(C)S(=O)(=O)c2ccc(Cl)cc2)[C@@H](C)CN([C@H](C)CO)C(=O)c2cc(NS(=O)(=O)c3ccccc3)ccc2O1 | inactive: 0.998 |
| C[C@@H]1CN([C@@H](C)CO)C(=O)CCCn2nncc2CO[C@H]1CN(C)S(=O)(=O)c1cn(C)cn1 | inactive: 1.01 |
| C[C@@H]1CN([C@H](C)CO)C(=O)Cc2cc(NC(=O)Nc3ccc4c(c3)OCO4)ccc2O[C@H]1CN(C)S(=O)(=O)c1cn(C)cn1 | inactive: 0.982 |
| COc1ccc(NC(=O)Nc2ccc3c(c2)C(=O)N([C@@H](C)CO)C[C@@H](C)[C@@H](CN(C)C(=O)Nc2ccc(OC)cc2)OCCCC[C@@H](C)O3)cc1 | inactive: 1.02 |
| NCc1nnnn1-c1ccccc1 | inactive: 0.977 |
| C[C@H]1CCCCO[C@@H](CN(C)C(=O)Nc2ccccc2)[C@@H](C)CN([C@@H](C)CO)C(=O)c2cc(NC(=O)Nc3cccc4ccccc34)ccc2O1 | inactive: 1.02 |
| C[C@H]1CN([C@@H](C)CO)C(=O)c2cc(NC(=O)Nc3ccc(C(F)(F)F)cc3)ccc2O[C@H]1CN(C)Cc1ccc(C(F)(F)F)cc1 | inactive: 1.01 |
| C[C@H](CO)N1C[C@H](C)[C@@H](CN(C)S(C)(=O)=O)Oc2ccc(NS(=O)(=O)c3ccc(F)cc3)cc2CC1=O | inactive: 0.981 |
| Nc1nonc1N1CCCCC1 | inactive: 1.05 |
| C[C@H]1CN([C@@H](C)CO)C(=O)c2cc(NC(=O)Cc3cn(C)c4ccccc34)ccc2O[C@@H]1CN(C)S(C)(=O)=O | inactive: 0.998 |
| COc1ccc(S(=O)(=O)N(C)C[C@@H]2Oc3ccc(NS(=O)(=O)c4ccc(C)cc4)cc3CC(=O)N([C@H](C)CO)C[C@H]2C)cc1 | inactive: 0.913 |
| Cc1noc(C)c1NC(=O)Nc1ccc2c(c1)C(=O)N([C@H](C)CO)C[C@@H](C)[C@H](CN(C)Cc1ccc(-c3ccccc3)cc1)O2 | inactive: 0.914 |
| C[C@H](CO)N1C[C@H](C)[C@@H](CN(C)S(=O)(=O)c2cccs2)Oc2ccc(NC(=O)CCCN(C)C)cc2CC1=O | inactive: 1.01 |
| C[C@@H]1CN([C@@H](C)CO)C(=O)c2cc(NC(=O)Nc3ccc(C(F)(F)F)cc3)ccc2O[C@@H](C)CCCCO[C@H]1CN(C)Cc1ccc(C(=O)O)cc1 | inactive: 0.947 |

| Compound | relative growth |
| --- | --- |
| C=C(C)C1CC=C(C(=O)O)CC1 (centres undefined) | inactive: 0.773 |
| C[C@@H]1CN([C@@H](C)CO)C(=O)c2cccc(NS(=O)(=O)c3cccs3)c2O[C@H]1CN(C)S(=O)(=O)c1cn(C)cn1 | inactive: 1.03 |
| COC(=O)C1=C(C)NC(C)=C(C(=O)OCCCN2CCC(c3ccccc3)(c3ccccc3)CC2)[C@@H]1c1cccc([N+](=O)[O-])c1 | inactive: 0.972 |
| C[C@H](CO)N1C[C@H](C)[C@H](CN(C)S(=O)(=O)c2ccccc2)OCCCC[C@H](C)Oc2ccc(NS(=O)(=O)c3ccc(Cl)cc3)cc2C1=O | inactive: 0.975 |
| CNC[C@@H]1OCCCC[C@@H](C)Oc2ccc(NC(=O)CCCN(C)C)cc2C(=O)N([C@@H](C)CO)C[C@H]1C | inactive: 0.963 |
| C[C@@H]1CN([C@H](C)CO)C(=O)c2cc(NC(=O)Nc3cccc4ccccc34)ccc2O[C@H]1CN(C)S(=O)(=O)c1ccc(F)cc1 | inactive: 1.06 |
| C[C@H]1CN([C@@H](C)CO)C(=O)Cc2cc(NS(=O)(=O)c3ccc(Cl)cc3)ccc2O[C@@H]1CN(C)S(=O)(=O)c1cn(C)cn1 | inactive: 0.999 |
| C[C@H](CO)N1C[C@H](C)[C@H](CN(C)C(=O)Nc2cccc3ccccc23)Oc2c(NC(=O)c3nc4ccccc4s3)cccc2C1=O | inactive: 0.994 |
| COc1cccc(-c2ccc3c(c2)O[C@@H](CN(C)C(=O)C2CCOCC2)[C@@H](C)CN([C@@H](C)CO)S3(=O)=O)c1 | inactive: 1 |
| CS(=O)(=O)N1CCN(Cc2cc3nc(-c4cccc5n[nH]cc45)nc(N4CCOCC4)c3s2)CC1 | inactive: 1.03 |
| C[C@H](CO)N1C[C@H](C)[C@H](CN(C)S(=O)(=O)c2ccccc2F)Oc2cc(C#Cc3cccc(F)c3)ccc2S1(=O)=O | inactive: 1.04 |
| C=CCN1C(=O)[C@@]2(O[C@@H](CCn3cc([C@H](O)c4ccccc4)nn3)[C@H]([Si](C)(C)c3ccc(OC)cc3)[C@H]2C)c2cc(N3CCOC3=O)ccc21 | inactive: 0.993 |
| C[C@@H]1CN([C@H](C)CO)C(=O)c2cc(NC(=O)Nc3ccccc3)ccc2O[C@@H](C)CCCCO[C@H]1CN(C)Cc1ccc(Cl)c(Cl)c1 | inactive: 1.02 |
| C[C@@H]1CCCCO[C@H](CN(C)Cc2ccc(Cl)c(Cl)c2)[C@H](C)CN([C@@H](C)CO)C(=O)c2cc(NC(=O)C3CCCCC3)ccc2O1 | inactive: 0.982 |
| C[C@H](CO)N1C[C@H](C)[C@@H](CN(C)C(=O)C2CCCCC2)Oc2cc(C#CCN(C)C)ccc2S1(=O)=O | inactive: 1 |
| COc1ccc(NC(=O)Nc2ccc3c(c2)C(=O)N([C@H](C)CO)C[C@H](C)[C@@H](CN(C)C(=O)Nc2c(C)noc2C)OCCCC[C@@H](C)O3)cc1 | inactive: 1.01 |
| COc1ccc(CN(C)C[C@H]2Oc3ccc(NC(=O)CCCCCC(=O)Nc4ccccc4N)cc3CC(=O)N([C@@H](C)CO)C[C@H]2C)cc1 | inactive: 1 |
| C[C@@H]1CCCCO[C@H](CN(C)Cc2ccc(C(F)(F)F)cc2)[C@H](C)CN([C@H](C)CO)C(=O)c2cc(NS(=O)(=O)c3ccc(Cl)cc3)ccc2O1 | inactive: 1.07 |
| CC(C)NC(=O)N(C)C[C@H]1OCCCC[C@@H](C)Oc2ccc(NC(=O)C3CCCCC3)cc2C(=O)N([C@@H](C)CO)C[C@H]1C | inactive: 0.936 |

— the supplement of paper PMC9446081
